Source: PubChem BioAssay (NCATS)
Several values for one entry are separate records, joined by “and”; a condition that tells them apart may be missing. Equal entries are not always repeated. Inconclusive results, whose numbers are uncertain, are shown with a selection of clear calls. For some assays here: Potencies of inconclusive entries are doubtful fits and often do not repeat. Some compounds were tested as several samples or in several runs, with calls that do not always agree. Activity calls are given as the source filed them. Calls come from the whole dose curve; as a rule, active = well fitted curve in the direction sought with a large enough effect; inconclusive = small, poorly fitted or top-dose-only effect, or another doubt; inactive = no such curve, though single readings can be large; an effect the other way counts as inactive or inconclusive.

Assays:
[1] = system: Zika virus NS2B-NS3 protease (linked construct); test: Primary screen NINDS Rhodamine qHTS for Zika virus inhibitors (AID 1347160); note: nearly all actives have a fitted effect of over 55% in size; for activity change, negative = inhibition: % is set by controls: 0 for no effect and ±100 for the full control effect
In short: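 Purified linked NS2B-NS3 protease (NS2B hydrophilic domain joined to NS3 protease by flexible linker), 25 nM in 10 mM Tris-HCl pH 8.0, 0.01% Tween 20. Compounds titrated, 15 min preincubation at room temperature; 1.5 microM Rhodamine110 substrate, FITC fluorescence change over 15 min.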

Tov112D = test: Primary qHTS to identify gynecologic anti-cancer compounds using libraries of approved drugs and bioactive compounds (AID 1345084); conditions: Gynecologic cancer cell panel viability, ATPlite luminescence, 48 h; activity change, negative = cytotoxicity: at 57.5 µM (top of the series); note: nearly all actives have a fitted effect of over 55% in size; for activity change, negative = cytotoxicity: % is set by controls: 0 for no effect and ±100 for the full control effect
In short: (§1)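 Measured: luminescence after ATPlite addition (15 min, RT). Exposure: 48 h, 37 C, 5% CO2.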

[2] = target: Phospholipid hydroperoxide glutathione peroxidase GPX4 (Homo sapiens) (UniProt P36969); test: Primary qHTS Assay for Inhibitors of Recombinant Selenoprotein Glutathione Peroxidase 4 (GPX4) (AID 1845192); note: nearly all actives have a fitted effect of over 65% in size; for activity change, negative = inhibition: % is set by controls: 0 for no effect and ±100 for the full control effect
In short: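 NADPH consumption, followed by fluorescence at 340/450 nm between 0 and 15 min, reports GPX4 activity via coupled glutathione reductase (100 nM). Enzyme 200 nM was pre-exposed to compound 30 min; 0.5 mM cumene hydroperoxide and 1 mM GSH served as substrates.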

[3] = qHTS of pediatric cancer cell lines to identify multiple opportunities for drug repurposing: Primary screen for NB-EBc1 cells (AID 1347095);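 for activity change, negative = cytotoxic: plate controls were DMSO neutral control for no effect and bortezomib for full effect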
In short: (§2)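 Viability was measured as metabolically active cells after 48 hours of treatment, read by CellTiter-Glo luminescence. Compounds were tested at multiple final concentrations, giving concentration-response curves.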

[4] = qHTS of pediatric cancer cell lines to identify multiple opportunities for drug repurposing: Primary screen for BT-12 cells (AID 1347101); note: nearly all actives have a fitted effect of over 25% in size;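 for activity change, negative = cytotoxic: plate controls were DMSO for no effect and bortezomib positive control for full effect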
In short: (§3)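 Cells (500-1,000/well) rested 5 h, then received compounds for 48 h; metabolically active cells were measured by CellTiter-Glo luminescence. Final concentrations spanned up to 46 µM (MIPE, 11-point) or 0.59 nM-46 µM (NPC, 8-point) in primary screens, 11-point in follow-ups.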

[5] = qHTS of pediatric cancer cell lines to identify multiple opportunities for drug repurposing: Primary screen for MG 63 (6-TG R) cells (AID 1347105); conditions: MG 63 (6-TG R) viability, CellTiter-Glo, 48 h; activity change, negative = cytotoxic: at 46 µM (top of the series) unless noted; note: nearly all actives have a fitted effect of over 50% in size
In short: as §2

[6] = qHTS of pediatric cancer cell lines to identify multiple opportunities for drug repurposing: Primary screen for Rh30 cells (AID 1347107); note: nearly all actives have a fitted effect of over 75% in size
In short: as §3

[7] = system: Zika virus NS2B-NS3 protease; test: Primary screen GU AMC qHTS for Zika virus inhibitors (AID 1347154); note: nearly all actives have a fitted effect of over 70% in size
In short: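 Fluorogenic AMC-substrate cleavage by noncovalent NS2B-NS3 protease complex (25 nM, pH 8.0 Tris buffer with Tween 20) followed for 15 minutes at room temperature (~20% conversion). Percent inhibition from ex340/em450 signal change, fitted by 4-parameter Hill equation.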

[8] = Primary qHTS for small molecule stabilizers of the endoplasmic reticulum resident proteome: Secreted ER Calcium Modulated Protein (SERCaMP) assay (AID 1508630); conditions: SH-SY5Y GLuc-SERCaMP (Gaussia luciferase released on ER calcium loss) secretion, thapsigargin, luminescence; activity change, negative = inhibition: at 38.4 µM (top of the series)
In short: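 GLuc-SERCaMP-expressing SH-SY5Y cells, pretreated 16 h with compound, are challenged with thapsigargin to empty ER calcium stores; after 4 h, coelenterazine is added directly to the medium and luminescence is imaged.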

[9] = Quantitative High-Throughput drug screen in 47 multiple myeloma cell lines against the NCATS MIPE library collection: KHM11_PLB cell viability assay (AID 1918962); conditions: KHM11 myeloma cell viability, CellTiter-Glo ATP luminescence, 48 h; viability, % of DMSO control: at 45.8 µM (top of the series); note: nearly all actives have a fitted effect of over 35% in size;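 for viability, % of DMSO control: 0% = media only wells and 100% = DMSO treated cells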
In short: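 Primary qHTS used for cherry-picking: cells at 500/well, library compounds for 48 h (37C, 5% CO2), luminescent ATP assay.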

[10] = Quantitative High-Throughput drug screen in 47 multiple myeloma cell lines against the NCATS MIPE library collection: JIM1_ECACC cell viability assay (AID 1918964)
In short: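 Steps: seed 500 cells per well; pin-transfer MIPE 4.0 library; incubate 48 h at 37C, 5% CO2, humidified; add CellTiter-Glo, 5 min room temperature; read luminescence.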

[11] = Quantitative High-Throughput drug screen in 47 multiple myeloma cell lines against the NCATS MIPE library collection: SKMM1_PLB cell viability assay (AID 1919863); conditions: SKMM1 myeloma viability, CellTiter-Glo ATP, 48 h; viability: hits give low values; note: nearly all actives have a fitted effect of over 35% in size
In short: (§4)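 Plated at 500 cells per well, myeloma lines received MIPE 4.0 compounds by pin tool. Following 48 h culture at 37 °C, CellTiter-Glo luminescence gave viability relative to DMSO and media-only controls.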

[12] = Quantitative High-Throughput drug screen in 47 multiple myeloma cell lines against the NCATS MIPE library collection: UTMC2_PLB cell viability assay (AID 1919868); conditions: CellTiter-Glo ATP luminescence, 48 h; viability (% of DMSO control): at 45.8 µM (top of the series); note: nearly all actives have a fitted effect of over 55% in size;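 for viability (% of DMSO control): 100% = DMSO-only wells and 0% = media-only wells without cells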
In short: as §4

MKL-2 = test: qHTS assay to identify novel small-molecules to repurpose for Merkel cell carcinoma treatment (AID 1296009); conditions: MCC and control cell lines, CellTiter-Glo viability, 72 h; activity change, negative = cytotoxicity: at 46 µM (top of the series); note: nearly all actives have a fitted effect of over 60% in size
In short: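 After compound transfer in DMSO, plates were kept 72 hr at 37 degree celsius. Luminescent ATP signal from CellTiter-Glo served as viability measure, normalized against DMSO and no-cell controls.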

C33A = test: Primary qHTS to identify gynecologic anti-cancer compounds using libraries of approved drugs and bioactive compounds (AID 1345084); conditions: Gynecologic cancer cell panel viability, ATPlite luminescence, 48 h; series mostly up to 57.5 µM; note: nearly all actives have a fitted effect of over 55% in size; for activity change, negative = cytotoxicity: % is set by controls: 0 for no effect and ±100 for the full control effect
In short: as §1

[13] = Drug repurposing screens with cells derived from glioblastoma tumor samples (AID 1345199); conditions: GBM patient neurospheres viability, ATP luminescence, 48 h; Potency: tumour line A unless noted; activity, negative = cell killing: at 46 µM (top of the series), tumour line A unless noted; note: nearly all actives have a fitted effect of over 40% in size
In short: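 Four patient lines of CD133+ GBM neurospheres were screened at several concentrations; hits were retested in those lines plus three slower-growing GBM lines, using 48-hour treatment and ATP-based viability.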

[14] = Quantitative High-Throughput drug screen in 47 multiple myeloma cell lines against the NCATS MIPE library collection: L363_DSMZ cell viability assay (AID 1918984); conditions: L363 myeloma viability, CellTiter-Glo ATP luminescence, 48 h; viability (% of control): at 45.8 µM (top of the series); note: nearly all actives have a fitted effect of over 40% in size
In short: as §4

[15] = qHTS of pediatric cancer cell lines to identify multiple opportunities for drug repurposing: Primary screen for BT-37 cells (AID 1347094);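 for activity change, negative = cytotoxic: plate controls were DMSO for no effect and bortezomib for full effect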
In short: as §2
Potency is the fitted concentration of half-maximal effect; tags give direction and shape of the fitted curve.

UniProt P36969, sequence (P36969 whole entry, looked up): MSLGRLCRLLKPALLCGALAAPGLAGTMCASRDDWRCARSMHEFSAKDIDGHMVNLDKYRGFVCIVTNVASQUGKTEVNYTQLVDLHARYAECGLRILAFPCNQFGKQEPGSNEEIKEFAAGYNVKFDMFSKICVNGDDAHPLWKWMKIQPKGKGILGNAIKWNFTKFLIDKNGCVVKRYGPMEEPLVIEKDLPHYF

**Q.** Which Potency [1] does the source give for `CC(C)c1nc(N(C)S(C)(=O)=O)nc(-c2ccc(F)cc2)c1/C=C/[C@@H](O)C[C@@H](O)CC(=O)O` here?
**A.** inactive

**Q.** What about the Potency (Tov112D) of the same compound?
**A.** inactive

**Q.** Which Potency [1] does the source give for `CC1(C)CCC(C)(C)c2cc([C@@H](O)C(=O)Nc3ccc(C(=O)O)cc3F)ccc21` here?
**A.** active: 14.1 µM

**Q.** Which Potency [2] does the source give for `COc1c2c(c(C)c3c1C(=O)OC3)O[C@@]1(C)C[C@@H](OC(C)=O)[C@]34O[C@](OC)(CC[C@]3(C)[C@H]1C2)OC4(C)C` here?
**A.** inactive

**Q.** Which Potency [1] does the source give for `CC(C)[C@@H](C(=O)O)N1Cc2c(cc(O)c3c2O[C@]2(C3)[C@H](C)CCC3C(C)(C)[C@H](O)[C@H](O)C[C@@]32C)C1=O` (stereo partly drawn) here?
**A.** active: 7.94 µM

**Q.** Which results are given for `NCCc1ccc(O)c(O)c1`?
**A.** Potency [3]: inactive; Potency [4]: inconclusive: 17.4 µM [cytotoxic, partial curve, poor fit]; Potency [5]: inconclusive: 16.8 µM [cytotoxic, partial curve, poor fit]; Potency [6]: inconclusive: 23.7 µM [cytotoxic, partial curve, poor fit]; Potency [7]: inconclusive: 21.5 µM [inhibitor, partial curve] and inconclusive: 32.2 µM [inhibitor, partial curve, poor fit]; Potency [8]: inconclusive: 10 µM [inhibitor, single point]; Potency [9]: inactive; Potency [10]: inconclusive: 26.4 µM [cytotoxic, partial curve, poor fit]; Potency [11]: inconclusive: 10.5 µM [cytotoxic, partial curve]; Potency [12]: inconclusive: 33.2 µM [cytotoxic, partial curve, poor fit]; Potency (MKL-2): active: 18.7 µM

**Q.** With `OC[C@H]1O[C@@H](OC[C@H]2O[C@@H](OC/C=C/c3ccccc3)[C@H](O)[C@@H](O)[C@@H]2O)[C@@H](O)[C@@H]1O` as the compound, how does the Potency [1] read?
**A.** inconclusive: 8.91 µM [inhibitor, partial curve]

**Q.** With `COc1ccc2c(c1)C(=O)N(CCc1ccc(S(=O)(=O)NC(=O)NC3CCCCC3)cc1)C(=O)C2(C)C` as the compound, how does the Potency [4] read?
**A.** inactive

**Q.** And the Potency [7]?
**A.** inconclusive: 9.07 µM [inhibitor, full curve]

**Q.** What about the Potency [1] of the same compound?
**A.** inconclusive: 14.1 µM [inhibitor, partial curve]

**Q.** What about the Potency [8] of the same compound?
**A.** inactive

**Q.** And the Potency [2]?
**A.** inconclusive: 20.2 µM [inhibitor, partial curve]

**Q.** What about the Potency (C33A) of the same compound?
**A.** inconclusive: 3.98 µM [cytotoxic, single point]

**Q.** And the Potency [13]?
**A.** inconclusive: 0.0316 µM [inhibitor, full curve, poor fit]

**Q.** With `NC(=O)N1c2ccccc2CC(=O)c2ccccc21` as the compound, how does the Potency [3] read?
**A.** inconclusive: 33.5 µM [cytotoxic, partial curve, poor fit]

**Q.** And the Potency [8]?
**A.** inconclusive: 14.1 µM [inhibitor, full curve]

**Q.** And the Potency [9]?
**A.** inconclusive: 0.296 µM [rising, full curve, poor fit]

**Q.** And the Potency [10]?
**A.** inactive

**Q.** And the Potency [14]?
**A.** inactive

**Q.** What about the viability [11] of the same compound?
**A.** inactive: 118%

**Q.** And the Potency [12]?
**A.** inconclusive: 2.96 µM [rising, full curve, poor fit]

**Q.** What about the Potency (MKL-2) of the same compound?
**A.** active: 6.68 µM

**Q.** What about the Potency [13] of the same compound?
**A.** inconclusive: 35.5 µM [inhibitor, single point]

**Q.** For `Cc1ccc2nc(NC(=O)CSc3nc4c(c(=O)n3-c3ccccc3)SCC4)sc2c1`, which Potency [15] is on record?
**A.** inconclusive: 24.3 µM [cytotoxic, partial curve]

**Q.** And the Potency [3]?
**A.** inconclusive: 11.8 µM [cytotoxic, partial curve]

**Q.** And the Potency [4]?
**A.** active: 5.44 µM

**Q.** And the Potency [5]?
**A.** inconclusive: 18.7 µM [cytotoxic, partial curve]

**Q.** And the Potency [6]?
**A.** inconclusive: 13.2 µM [cytotoxic, partial curve]

**Q.** What about the Potency [7] of the same compound?
**A.** inconclusive: 6.07 µM [inhibitor, full curve]

**Q.** And the Potency [9]?
**A.** inconclusive: 14.8 µM [cytotoxic, partial curve]

**Q.** What about the Potency [10] of the same compound?
**A.** inconclusive: 9.35 µM [cytotoxic, full curve, poor fit]

**Q.** What about the Potency [14] of the same compound?
**A.** active: 11.8 µM

**Q.** And the Potency [11]?
**A.** active: 11.8 µM

**Q.** And the Potency [12]?
**A.** inactive

**Q.** For `O=NN(CCCl)C(=O)NC1CCCCC1`, which Potency [15] is on record?
**A.** inactive

**Q.** What about the Potency [7] of the same compound?
**A.** inconclusive: 0.0081 µM [inhibitor, full curve, poor fit]

**Q.** What about the Potency [8] of the same compound?
**A.** inconclusive: 35.5 µM [inhibitor, partial curve]

**Q.** And the Potency [9]?
**A.** inactive

**Q.** And the Potency [10]?
**A.** inactive

**Q.** What about the Potency [14] of the same compound?
**A.** inactive

**Q.** And the Potency [11]?
**A.** inconclusive: 4.69 µM [cytotoxic, partial curve, poor fit]

**Q.** And the Potency [12]?
**A.** inactive

**Q.** What about the Potency [13] of the same compound?
**A.** inconclusive: 0.794 µM [inhibitor, full curve]
